# Values joined by “and” are separate entries in the source; they are usually repeats but may differ in a detail not shown here. Equal values may be shown once. Hit rate of the full screen: of about 420,000 compounds, about 64,000 (15%) were called active. Inconclusive results, whose numbers are uncertain, are shown with a selection of clear calls. The call rests on the fitted dose curve; in most records, active means well fitted inhibition curve with a large enough effect; inconclusive means small, poorly fitted or top-dose-only effect; inactive means flat fitted curve, though single readings scatter. Potencies of inconclusive entries are doubtful fits and often do not repeat.
# Assay: qHTS for Inhibitors of human tyrosyl-DNA phosphodiesterase 1 (TDP1): qHTS in cells in absence of CPT; further: nearly all actives have a fitted effect of over 55% in size
# Conditions: DT40 Tdp1-/- hTDP1 cells, no CPT, ATP luminescence, 48 h; activity change, negative = growth inhibition: at 46.2 µM (top of the series) unless noted
# In short: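 DT40 Tdp1-/-;hTDP1 cells, no CPT (DMSO vehicle only), 400 cells/well; compounds pin-transferred; ≥48 hr, 37 °C; CellTiter-Glo 30 min RT dark, luminescence read.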
# On the % scale 0 is the no-effect control and ±100 the full control effect; potency means the concentration at half of the fitted maximal effect; tags describe the fitted curve by direction and shape.
SMILES,Potency,"activity change, negative = growth inhibition"
Cc1ccc(CN2C(=O)C3(c4ccccc42)N(c2cccc(C(F)(F)F)c2)C(=O)CS3(=O)=O)cc1 (stereo not given),"inconclusive: 25.9 µM [inhibitor, single point]",
Cc1ccc(S(=O)(=O)Nc2ccccc2/C=N/c2nc3ccccc3n2C(C)C)cc1,active: 20.6 µM,
Cc1ccc(NC(=O)CN2CCCCCC2)cc1[N+](=O)[O-],inactive,
Cc1ccc(-c2c(C(=O)N/N=C/c3ccc(OC(C)C)cc3)nnn2-c2nonc2N)cc1,"inconclusive: 29.1 µM [inhibitor, single point]",
COc1ccc(CNc2cccnc2Cl)cc1,inactive,
COc1ccc(OC)c2c1C(=O)C(Cl)=C(Cl)C2=O,active: 0.411 µM,
CC(=O)Oc1ccc(C(=O)COC(=O)CNC(=O)COc2ccccc2C)cc1,"inconclusive: 11.2 µM [inhibitor, partial curve]",
COc1ccc(-c2cc(C(=O)N3CCN(c4ccccc4OC)CC3)no2)cc1OC,active: 20.6 µM,
COc1cccc(C(=O)N/N=C/C(Br)=C/c2ccccc2)c1,active: 2.91 µM,
CC(Oc1ccccc1Cl)C(=O)N1CCN(CCc2ccccn2)CC1 (stereo not given),"inconclusive: 29.1 µM [inhibitor, single point]",
O=c1cc(CSc2n[nH]c(-c3ccccc3)n2)[nH]c2ccccc12,active: 25.9 µM,
O=C(CC1NCCNC1=O)Nc1ccc(Cl)c(Cl)c1 (stereo not given),inactive,
COc1ccccc1NC(=O)CSc1oc(-c2cccs2)nc1S(=O)(=O)c1ccccc1,"inconclusive: 29.1 µM [inhibitor, single point]",
CCOC(=O)C1(Cc2ccccc2C(F)(F)F)CCN(C2CCCC2)CC1,"inconclusive: 29.1 µM [inhibitor, single point]",
CCOC(=O)C1CCN(c2ncnc3c2c(-c2ccccc2)cn3-c2ccccc2)CC1,active: 23.1 µM,
COc1ccc(C2(C(=O)Nc3ccc(OC)cc3OC)CCCC2)cc1,active: 23.1 µM,
COc1cc(NC(=O)CSc2nc3[nH]c(=O)cc(O)c3s2)cc(OC)c1OC,"inconclusive: 5.17 µM [inhibitor, single point]",
CN(C)C(=C(C#N)C#N)N1CCN(c2ccc(Cl)cc2)CC1,"inconclusive: 18.4 µM [inhibitor, single point]",
CCN(CC)Cc1c(O)ccc2c([N+](=O)[O-])c(C)n(-c3ccc(OC)cc3)c12,active: 16.4 µM,
Cc1cc(NC(=O)CSc2nnc(-c3ccccc3)n2C)no1,inactive,
CC(=O)C(C)Oc1ccc(Cc2ncc(C(F)(F)F)cc2Cl)cc1 (stereo not given),inactive,
C[C@H](NC(=O)c1nc[nH]c1C(=O)NCc1ccccc1)c1ccccc1,"inconclusive: 20.6 µM [inhibitor, single point]",
OC(c1ccc(-c2ccccc2)cc1)c1ncc(-c2ccccc2F)[nH]1 (stereo not given),"inconclusive: 29.1 µM [inhibitor, single point]",
CCSC1(SCC)N=C(N)C2(C#N)C(c3ccc(OC)c(OC)c3OC)C12C#N (stereo not given),active: 8.2 µM,
Cc1ccccc1OCC(=O)Nc1ccc(N2CCN(C(=O)C(C)C)CC2)c(Cl)c1,active: 6.51 µM,

SMILES,Potency,"activity change, negative = growth inhibition"
CCC(=O)N(C1=C(NC)C(=O)c2ccccc2C1=O)C(C)C,active: 1.64 µM,
O=C(NC1CCCCC1)c1ccc2c(c1)N(Cc1ccc(Cl)cc1)C(=O)c1ccccc1S2(=O)=O,inactive,
CC1(C(=O)NS(=O)(=O)C2CC2)CCCN(C(=O)c2cccc(Cl)c2)C1 (stereo not given),active: 1.46 µM,
Cc1cccc(NC(=O)c2nc[nH]c2C(=O)N[C@@H](Cc2ccccc2)C(=O)OC(C)(C)C)c1,"inconclusive: 25.9 µM [inhibitor, single point]",
COc1ccc(OC)c(NC(=O)CN2C(=O)CCc3cc(S(=O)(=O)N4CCCCC4)ccc32)c1,"inconclusive: 11.6 µM [inhibitor, partial curve]",
CCCN(C(=O)c1ccco1)c1nnc(-c2ccccc2C)s1,"inconclusive: 29.1 µM [inhibitor, single point]",
COc1ccc(Oc2ncc3nc(CCc4ccccc4)c(=O)n(C[C@H]4CCCO4)c3n2)cc1,inactive,
CCOC(=O)CN1C(=O)/C(=C/c2ccccc2Br)Oc2ccccc21,,inconclusive: -20.9% [inhibitor]
CC12CCC(=O)N1C(C(=O)Nc1cccc(S(=O)(=O)N3CCCCCC3)c1)CS2 (stereo not given),"inconclusive: 29.1 µM [inhibitor, single point]",
S=C(NCc1ccc(Cl)cc1)NC1CCCCC1,"inconclusive: 23.1 µM [inhibitor, single point]",
CCOc1ccc(-c2ccc(SCc3ccccn3)nn2)cc1,active: 23.1 µM,
NCCCC[C@@H](C(=O)N1CCNCC1)n1cc([C@@H](N)CO)nn1,inactive,
O=C(CCCN1C(=O)/C(=C/c2ccccc2)SC1=S)NCCCn1ccnc1,"inconclusive: 29.1 µM [inhibitor, single point]",
CC1(Oc2cnc(Cl)c3ccccc23)CCN(Cc2ccc(-c3ccccn3)cc2)C1 (stereo not given),"inconclusive: 20.6 µM [inhibitor, single point]",
COc1cccc(NC(=O)CN2CCSc3ccccc32)c1,"inconclusive: 29.1 µM [inhibitor, single point]",
CSCCC(NC(=O)COc1ccccc1)C(=O)N(C)Cc1c(F)cccc1Cl (stereo not given),active: 11.6 µM,
COc1cccc(N2CCN(C(=O)c3cnn(-c4ccc(C)cc4C)c3C3CCN(C(=O)OC(C)(C)C)CC3)CC2)c1,active: 20.6 µM,
CC(C)c1nc(CNC(=O)C2CCC(=O)N(CCc3cccc(F)c3)C2)cs1 (stereo not given),inactive,
O=C(O)c1cnn(-c2nc(-c3ccc(Cl)c(Cl)c3)cs2)c1C(F)(F)F,,inconclusive: -31.6% [inhibitor]
COc1ccc(Br)cc1CNc1ccc(O)cc1,"inconclusive: 29.1 µM [inhibitor, single point]",
CCN(CC)c1ccc(/C=N/NC(=O)Cc2nnc(NC(=O)Nc3ccccc3)s2)cc1,active: 20.6 µM,
CC(=C/c1ccccc1)/C=N/n1c(-c2ccncc2)n[nH]c1=S,active: 16.4 µM,
COc1cccc(-c2[nH]nc3c2C(c2ccoc2)C(C#N)=C(N)O3)c1 (stereo not given),inactive,
COc1ccc(S(=O)(=O)Nc2ccc3c(c2)n(C)c(=O)n3C)cc1OC,"inconclusive: 29.1 µM [inhibitor, partial curve, poor fit]",
CC(=O)OCC(=O)[C@@]12OC3(CCCC3)O[C@@H]1C[C@H]1[C@@H]3CCC4=CC(=O)C=C[C@]4(C)[C@@]3(F)[C@@H](O)C[C@@]12C,active: 4.61 µM,

SMILES,Potency,"activity change, negative = growth inhibition"
COc1cccc(-c2nc(-c3ccc4c(c3)NC(=O)CO4)cs2)c1,active: 5.17 µM,
CCOc1cc(N2CCOCC2)c(OCC)cc1NC(=O)COC(=O)c1ccccc1C,"inconclusive: 29.1 µM [inhibitor, single point]",
CS(=O)(=O)c1cccc(-c2ccc3nncn3c2)c1,inactive,
CN(C)C(=O)c1ccc(-c2nc(N(C)Cc3ccco3)c3ccccc3n2)cc1,"inconclusive: 16.4 µM [inhibitor, single point]",
Nc1nc(SCc2ccc(Cl)cc2Cl)ns1,"inconclusive: 25.9 µM [inhibitor, single point]",
CCSc1nnc(SCC(=O)N2CCN(C(=O)c3ccco3)CC2)s1,inactive,
CCOc1cccc(CN2CCC(n3nccc3NC(=O)CCCc3ccccc3)CC2)c1,"inconclusive: 20.6 µM [inhibitor, single point]",
COc1ccccc1N(C(=O)c1ccco1)C(C(=O)NC1CCCC1)c1cccnc1 (stereo not given),,inconclusive: -32.1% [inhibitor]
CC(=O)Nc1cccc(-c2ccnc3c2CC(C(=O)NC(C)C)O3)c1 (stereo not given),"inconclusive: 5.8 µM [inhibitor, single point]",
NC(=O)[C@@H]1CCCN1Cc1nc(Cc2ccccc2Cl)no1,inactive,
Cc1sc2nc(CSCC(=O)Nc3ccc(C(F)(F)F)cc3)[nH]c(=O)c2c1C,"inconclusive: 13 µM [inhibitor, partial curve, poor fit]",
CC(NC(=O)COc1cccc(Br)c1)C(=O)O (stereo not given),inactive,
CC(=O)c1cccc(NS(=O)(=O)c2ccc3c(c2)NC(=O)CC(=O)N3)c1,inactive,
COc1cccc(C(=O)CC(=O)C(=O)Nc2cc(OC)ccc2OC)c1,active: 23.1 µM,
Cc1ccc(Cl)cc1NC(=O)Cn1c(=O)n(Cc2ccc(C(=O)NCc3ccc4c(c3)OCO4)cc2)c(=O)c2ccccc21,inactive,
CC(CCCC(C)(C)O)CC1C2=C(CCCC2=O)OC2=C1C(=O)CCC2 (stereo not given),inactive,
Cc1cccc(CNc2cc(-c3ccccc3CN(C)C)ncn2)c1,"inconclusive: 18.4 µM [inhibitor, single point]",
O=C(NCc1ccco1)c1ccc([N+](=O)[O-])cc1Cl,inactive,
Cc1nn(CC(=O)Nc2ccccc2F)c(=O)c2c(C)n(-c3ccc(Cl)cc3)nc12,"inconclusive: 23.1 µM [inhibitor, single point]",
COc1ccc(NC(=O)CSc2cc(-c3ccccc3)nc(C)n2)cc1,inactive,
O=c1c2cnn(-c3ccc(Cl)cc3)c2ncn1Cc1cccc(C(F)(F)F)c1,"inconclusive: 14.6 µM [inhibitor, partial curve, poor fit]",
COc1cccc(-c2csc(N3CCN(C(=S)Nc4ccc(Cl)cc4)CC3)n2)c1,"inconclusive: 20.6 µM [inhibitor, single point]",
COc1ccc(/C=N/n2cc(-c3ccccc3)nc2N)cc1,active: 5.17 µM,
COc1cc(C)ccc1OCC(=O)OCC(=O)c1ccc[nH]1,inactive,
CCN1CCN(c2c(S(=O)(=O)c3ccc(C)c(C)c3)cnc3ccc(F)cc23)CC1,"inconclusive: 29.1 µM [inhibitor, single point] and inconclusive: 11.6 µM [inhibitor, partial curve, poor fit]",
